# B1: ADC-2 (conjugate)
# heavy: EVKLVESGGGLVQPGGSLRLSCAASGFTFSDYYMAWVRQAPGKGLEWVANINYDGSSTYYLDSLKSRFTISRDNAKNSLYLQMNSLRAEDTAVYYCARGGDYWDAMDYWGQGTTVTVSS[sequence of human IgG1 constant region omitted]
# light: DIQMTQSPSSLSASVGDRVTITCRASQDISKYLNWYQQKPGKAPKLLIYYTSSLHSGVPSRFSGSGSGTDYTLTISSLQPEDFATYYCQQGNRLPRTFGGGTKVEIKRTVAAPSVFIFPPSDEQLKSGTASVVCLLNNFYPREAKVQWKVDNALQSGNSQESVTEQDSKDSTYSLSSTLTLSKADYEKHKVYACEVTHQGLSSPVTKSFNRGEC
# Columns and labels:
# [1] = system: 22RV1 cells; assay: Cell killing activity of ADC molecules (CellTiter-Glo); format: cell-based, human; conditions: 5 days
# Description: (§1) LNCaP (ATCC, CRL-1740), 22RV1 (ATCC, CRL-2505), and PC-3 (ATCC, CRL-1435) cells were digested with trypsin, neutralized with a fresh medium, centrifuged at 1000 rpm, and then resuspended in a medium. After the cells were counted, the density of the cell suspensions was adjusted to […], and the cells were plated onto a 96-well plate. The adjusted cell suspension (135 µL) was added to each well with […]. Only the middle 60 wells were used for plating, and six wells in the twelfth column were taken as pure medium controls without cells. An equal volume of PBS was added to the other wells. The cells were incubated at 37 °C with 5% CO2 for 16 h.
# (§2) Then 20 µL of the dilution was added to the cell plate described above, and the plate was incubated in an incubator (37 °C, 5% CO2) for 5 days. […] Subsequently, 9-point serial dilutions at a 1:3 ratio were performed with PBS. Then 1 µL of the dilution was added to 20 µL of RPMI-1640, and the mixture was transferred to a 96-well cell culture plate. The plate was incubated in an incubator (37 °C, 5% CO2) for 5 days. In the 96-well cell culture plate, 80 µL of the CellTiter-Glo reagent was added to each well, and the plate was left to stand in the dark at room temperature for 10-15 min. The chemiluminescence signal values were read on Victor3, and the data were processed using GraphPad software.
# (§3) On the fifth day, the culture plate was taken out and allowed to return to room temperature. The CellTiter-Glo assay solution (75 µL) was added to each well, and the plate was left to stand in the dark at room temperature for 10 min. A Backseal membrane was attached to the bottom of the cell culture plate. The plate was placed on a microplate reader Victor 3, and luminescence signal values were read. Curve fitting was performed according to the log values of concentrations of the test compounds to the corresponding signal values using Graphpad Prism software, and IC50 values were calculated. The maximum value of killing was defined as the maximum killing rate (Imax) of the compound. The killing rate was calculated as follows: [formula]
# [2] = system: LNCaP cells; assay: as above; format: cell-based, human; conditions: 5 days
# Description: as §1, §2, §3
# [3] = system: PC-3 cells; assay: as above; format: cell-based, human; conditions: 5 days
# Description: as §1, §2, §3
# [4] = Single-dose pharmacokinetics of ADC molecules in cynomolgus monkeys; format: in vivo; conditions: 10 mg/kg, i.v.
# Description: Cynomolgus monkeys (Suzhou Guochen Biotechnology Co., Ltd.) were grouped with 3 cynomolgus monkeys for each ADC molecule. After the ADC molecule was injected intravenously at 10 mpk (n = 3 cynomolgus monkeys/group), sera were collected at 0.083 h, 1 h, 6 h, 12 h, 24 h, 48 h, 96 h, 168 h, 240 h, 336 h, 504 h, and 672 h for bioanalytical measurements. The cynomolgus monkey serum samples were determined using an HTRF method, and the quantitative analysis of the content of the test samples was performed by a four-parameter model curve of the standard substance. Pharmacokinetic parameters were analyzed using a standard non-compartmental model of WinNonlin software (6.1). Table 15. PK of ADC molecules in cynomolgus monkeys
# [5] = system: PC-3 cells; assay: In vitro cell binding assay of ADCs; design: species or system human
# Description: In this assay, fluorescence signals of the antibody on the cell surface were detected, and the binding of the antibody was evaluated according to the intensity of the fluorescence signals. […] The cells were incubated with a FITC-labeled goat anti-human IgG (H + L) secondary antibody (Jackson Immuno Research, 109-095-003) at 4 °C for 30 min, and then excess antibodies were washed off. The fluorescence signals on the cell surface were read using BD CantoII. Table 11. In vitro cell binding activity of ADCs (EC50, nM)
molecule,measurement,setting,value
B1,Imax (maximum killing rate),[1],98.03%
same,Imax (maximum killing rate),[2],94.91%
same,Imax (maximum killing rate),[3],90.73%
same,IC50,[3]; read-out: IC50 (killing effect),119 nM
same,AUC 0-t Intact ADC,[4]; intact ADC,19078 µg·h/mL
same,AUC 0-t Intact ADC/TAb,[4]; ratio,102%
same,AUC 0-t TAb,[4]; total antibody,18691 µg·h/mL
same,In vitro cell binding activity of ADCs (EC50),[5],No binding

# Source: patent EP4755403A1, “ANTI-PSMA ANTIBODY-DRUG CONJUGATE AND PHARMACEUTICAL USE THEREOF” (priority 2023, dated 2025)
